# In the supplement of paper PMC7826260:
# Some of the results follow. Cleavage of a single-stranded DNA pool by Rep nickase domains was read by sequencing (3 µM enzyme, 1 h, 37 °C); shown is the middle of each 90-letter strand. The score is log2 (uncut reads / reads without enzyme); the lower, the more was cut; hits are not called. Because reads are shares of a total, they shift together; uncut strands gain when others are lost, and binding without cutting may add a little.
# System: T1, Rep nickase domain of faba bean necrotic yellows virus
# T1 sequence (residues 1-98 of Rep, tag left off): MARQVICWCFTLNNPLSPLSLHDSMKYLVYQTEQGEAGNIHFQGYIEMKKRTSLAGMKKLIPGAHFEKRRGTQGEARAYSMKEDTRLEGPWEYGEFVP
# Experiment: uncleaved DNA left, log2 of reads against the no-enzyme library (log2 ratio); higher = less cleavage (more negative = more Rep cleavage of the k-mer); sequences stand for … in CTCGTCCG…ACCGGAGA
# Description: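 A pool of 90-nt single-stranded DNAs with seven random bases just before the constant AC of the nick site (name = the seven bases) was cut by 3 µM recombinant His6-SUMO-tagged Rep nickase domain (300 nM DNA, 50 mM HEPES pH 8.0, 50 mM NaCl, 1 mM MnCl2, 1 h, 37 °C, three replicates). Uncut DNA was amplified and sequenced.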
row,Sequence,uncleaved DNA left (log2)
1,ACCACAG,0.053
2,GACTTAT,-0.226
3,TGACCTT,-0.034
4,GCTCACA,0.098
5,AAACTCT,0.0693
6,ACAGAGT,0.049
7,CGTCTAG,0.162
8,CGCCATT,-0.157
9,AAATGGG,0.0791
10,GATGGGC,-0.0676
11,AGGATGC,-0.143
12,TGCTATG,0.0387
13,CTTTGGA,-0.0419
14,GGTGTAA,0.00978
15,CCTTATT,-0.109
16,GGCGATC,-0.0599
17,TATATTC,0.0127
18,GGATACA,-0.127
19,GTACGCA,-0.00211
20,AATCACA,0.123

row,Sequence,uncleaved DNA left (log2)
1,CACAGTT,0.0187
2,GGTTTGG,0.0452
3,GTATGAA,-0.033
4,GGGCATC,-0.0762
5,AGTCATT,-1.88
6,GGCCTGT,0.0299
7,TCTAAAC,0.0365
8,AGGCAAG,-0.0801
9,CTGTCAC,-0.0306
10,TTGACCG,-0.0379
11,CAAGCAC,0.0483
12,GACCCGC,-0.0583
13,GTGTAGG,0.0017
14,ATATAGG,0.0623
15,CGGCCGA,0.0477
16,AGGGGTG,-0.147
17,TACGGCG,0.0883
18,TACATTC,0.0379
19,GACAGGT,-0.000833
20,TATGTGG,0.0604
